ChEMBL document CHEMBL1201862, “PubChem BioAssay data set” (2004)
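48-hour exposure; five concentrations; linearly interpolated endpoints. The concentration for 50% growth inhibition is given as GI50.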 The source made the active and inactive calls. Cut-off read from the data, not from the text of the source: active = GI50 up to about 1.1 µM and inactive = higher.

Assays:
Test in all cases: NCI anticancer screen, dose series, 48 h
K562 = tested on: K562
MDA-MB-435 = tested on: MDA-MB-435
NCI-H460 = tested on: NCI-H460
OVCAR-5 = tested on: OVCAR-5
MCF7 = tested on: MCF7
T47D = tested on: T47D
RPMI-8226 = tested on: RPMI-8226
OVCAR-4 = tested on: OVCAR-4
LOX IMVI = tested on: LOX IMVI
EKVX = tested on: EKVX
HL-60 = tested on: HL-60
Hs-578T = tested on: Hs-578T
CCRF-CEM = tested on: CCRF-CEM
NCI-H522 = tested on: NCI-H522
SK-MEL-5 = tested on: SK-MEL-5
UO-31 = tested on: UO-31
MOLT-4 = tested on: MOLT-4
TK-10 = tested on: TK-10
HCT-116 = tested on: HCT-116
CAKI-1 = tested on: CAKI-1

Compound: CCOC(=O)Oc1cc2c(c(OC)c1OC)-c1ccc(SC)c(=O)cc1[C@@H](NC(C)=O)CC2
- GI50 (K562): active: 5.56 nM
- GI50 (MDA-MB-435): active: 1.95 nM
- GI50 (NCI-H460): active: 17.5 nM
- GI50 (OVCAR-5): active: 479 nM
- GI50 (MCF7): active: 5.93 nM
- GI50 (T47D): inactive: 10 µM
- GI50 (RPMI-8226): active: 3.69 nM
- GI50 (OVCAR-4): inactive: 2.78 µM
- GI50 (LOX IMVI): active: 7.33 nM
- GI50 (EKVX): inactive: 1.64 µM
- GI50 (HL-60): active: 7.11 nM
- GI50 (Hs-578T): active: 2.1 nM
- GI50 (CCRF-CEM): active: 6.52 nM
- GI50 (NCI-H522): active: 21.1 nM
- GI50 (SK-MEL-5): active: 4.51 nM
- GI50 (UO-31): inactive: 4.69 µM
- GI50 (MOLT-4): active: 11.4 nM
- GI50 (TK-10): inactive: > 10 µM
- GI50 (HCT-116): active: 6.03 nM
- GI50 (CAKI-1): active: 927 nM
